Data: the supplement of paper PMC10126150
Sequences with one replicate were seen in a single cluster, so their values are uncertain.

Tested on: ATP
Assay: switch fluorescence ratio, 500 uM ATP over buffer (Cy3 cluster intensity, sum of 5 cycles each) (fold (ratio)); higher = stronger signal-on switching upon ATP binding; sequences stand for … in TCGTCGGCAGCGTCAGATGTGTATAAGAGACAGTTTTTTTTTTTTTTTTTTTTTTTTT…TC
Conditions: aptamer strand: ATP DNA aptamer (quencher-CACCTGGGGGAGTATTGCGGAGGAAGG + anchor), 100 nM annealed; ATP concentration: 500 uM; one replicate
Procedure, shortened: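 Imaging in selection buffer was followed by imaging after 15 min with 500 uM ATP at 22 °C, for Cy3-labelled switching-strand clusters annealed to 100 nM quencher-labelled ATP aptamer on a modified Illumina MiSeq flow-cell. Five of these buffer/ATP cycles ran, separated by NaOH stripping and re-annealing. The fluorescence ratio per cluster is summed target-cycle over summed buffer-cycle Cy3 intensity, averaged per switch-domain sequence; clusters outside 100-1000 RFU were removed.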
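Note: ATP exposure 15 min at 22 °C before imaging.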

Sequence | switch fluorescence ratio
GAAGAATTCA | 0.992
CTTGAAAATG | 1
CTTATGCAAA | 1.07
CCTTCGATAT | 2.89
GATAGACGGC | 0.979
GCAGTCGGCA | 0.991
CGGTGCTATT | 0.96
CTCCGGAAAA | 1.44
CACACAGTTA | 1.02
TTATCTACAA | 1.05
ATAAATCAAT | 1.01
TGCGAAATTA | 0.992
ATTCCGAGTA | 1.11
GGAGTTGTGT | 0.994
TGTATGCTAG | 0.973
GTCGGACGTG | 1.05
GGTCAGGTAT | 0.957
AACACCCGTG | 0.997
CCTAACCCTG | 1.05
ATAATCATCC | 0.997
ATCACATCCC | 1.03
AAGCTTACA | 1.02
GAACGCTGTT | 1.01
AAAAAAGGCT | 1.03
ATTTGATTAT | 0.959
TGACTTTGCG | 0.984

Sequence | switch fluorescence ratio
TGTGAAACAG | 1.02
AGGTTGCCA | 1.05
GTTCTGGCGT | 1.01
TATAAATCCG | 1.03
CGCGACCAGG | 1.47
CCCATTTCAG | 1.02
ACATGTCTTG | 1.07
GATAGGAACA | 1.01
AGATGCCCAA | 0.991
ACCGTCCGGA | 1.06
ACGCACGCTC | 1.66
AGATTAAAG | 0.978
TCGTTTGAGA | 0.985
GATTGCCCAT | 1.01
CTATATAAGC | 1.06
CGATTTAAGT | 1.01
CATCTTAAGG | 1.05
GGATAAAACA | 0.963
TAAAATGGCT | 0.968
GCTAAAGAGG | 1.01
CGCTTTAACC | 1.09
GGAACCCTTT | 1.03
ATCTGCGATT | 1.11
TCATGAGAAC | 1.01
CGTCGAATTG | 1.02
TTTTCAACC | 1.05

Sequence | switch fluorescence ratio
ACTGGTGCCG | 1.01
GTTTTCGTCT | 1.06
ATGCGGGCCT | 1.02
CAGCGGTTCG | 1.01
CTTTGCTAGC | 1.09
CGACCGTCTA | 1.04
ACTTATTTGG | 0.993
AGTCTCACAA | 1
TGTGAAGTCT | 1.03
TTCGAGGATA | 0.994
TTAGATTTAT | 1.05
AAATGGTACC | 1.04
GACCCAAAAA | 1.8
GTTGGTAGAA | 1.02
CTTTTCTCGG | 1.15
CGCCCGTGTG | 1.33
TCAAGATGTA | 1.01
AAGTGAGAAT | 0.98
GATACCACTG | 1.08
CGTCCTAGCC | 1.11
GCGAATAGCC | 1.08
AGTACTCGA | 1
ACCCGAATCG | 1.03
ACGAGAGTGC | 0.963
ACCAATCTCA | 1.06
TGCCACGCCA | 1.04

Sequence | switch fluorescence ratio
CCACCAATAG | 5.29
TGCCGTTGGG | 1.01
GGACTGCCTT | 1.07
AGTAAAGGC | 1
AGATGGCCAT | 0.998
GACATTATGG | 1.03
GTTGCGTGG | 1.01
TTTTTACCGG | 1.03
AGCCGGGGCG | 1.08
GAGGTGCACA | 1.04
TACCAGCCAG | 1.04
CATCGTACAG | 1.04
CTTGGATTA | 0.997
GTTTATACGG | 0.99
TGTAGGATTA | 1.05
GTATTGGTCC | 0.988
GGATACGTCG | 0.995
TGCAGTGCGC | 1.03
TTGAGGAGTT | 0.992
ACACGGGCGA | 1.03
CTGAATATAC | 2.88
AAGGCCGGTT | 0.992
ACTAACCACC | 1.3
TGGGATGGCT | 1.08
TTCCCTTTGT | 0.996
CCTACCAACT | 1.94

Sequence | switch fluorescence ratio
GACTTTTTCT | 1.01
TGATGGTAGT | 0.981
GAAATTATGC | 0.924
CATGGTGCGT | 1.03
GGATATTTAC | 1.03
TATATCCGT | 1.02
TTACGCCGCG | 1.31
CCGTACCAGG | 4.98
GGCGGGCCGT | 1.01
GGGAAGGACG | 1.02
CAGTAGGCAC | 0.978
CCGCTCTGGG | 1.18
ATTATACA | 1.03
CTGATTGGCG | 0.981
TCAAACAGGT | 1.03
TTGAACTAGA | 0.975
AGCCATCACC | 1.05
AGTCCCACTG | 1.03
TACAGCAAC | 1.49
TCGTTAGTGA | 1.01
CCTATTAGAT | 1.04
GGGTGCCTGA | 0.946
CCAGTAGC | 1.09
TACATGGCAC | 1.14
AAACGAGCGT | 0.997
ACGAGGCTGG | 1.01

Sequence | switch fluorescence ratio
CAAGGTAGCT | 0.977
CAAAAGCTTC | 1.12
GCTCGCTAGT | 1
AGTATCGGGG | 1.04
CCGATAGAGC | 1.06
GTCTTTGTTG | 0.974
GCTGATCTAC | 1.02
TTACGGCCAG | 1.01
GTAACAAAAA | 0.937
AAGAATTTCC | 1.09
GCGGATCTGG | 1.05
GGCTGCTTG | 0.931
CACGGCGTCC | 1.02
ATGATAAAGC | 0.97
TTGTCCGCC | 1.17
AAATTGTGAG | 0.971
CAGGGAATCG | 1
TAAAAATAGT | 0.957
TGCTATGTAC | 1.19
TGCGACCTCT | 0.93
AATTGGAATT | 0.939
ATAATGGAAA | 0.967
AGACAGTCCG | 1.07
